Some of the results follow.
These compounds were tested on T1, C. trachomatis L2/434/Bu expressing GFP (CTL2-GFP). Details: total inclusion area; 28.5 h, 10 µM; inhibitor.
T1 construct: L2/434/Bu GFP intracellular growth in HeLa cells
Parameters: species or system HeLa; C. trachomatis total inclusion area by high-content imaging, normalised to DMSO
Method in brief: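 High-content images of fixed, Hoechst-stained infected cultures supply inclusion area and count (growth) plus nuclei number (viability), complementing bulk GFP/resorufin fluorescence. MIC determination is unchanged from the primary assay.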

SMILES	% of control remaining
CN(C)CCN(Cc1ccccn1)c1ncccn1 [CBK020142]	68.269
COc1ccc(CCNC(=O)N2CCC(C(=O)O)CC2)cc1OC [CBK161404]	63.6132
O=C(O)Cn1nnc(-c2ccncc2)n1 [CBK269884]	82.9836
Cc1nnc(CSc2ncc(-c3ccc(Cl)cc3)n2Cc2ccccc2)o1 [CBK297154]	108.149
COc1ccc(C(=O)OC(C)(C)C)c(-c2cncc(N3CCCCC3CCO)n2)c1 (centres unmarked) [CBK037786]	118.669
COc1ccc(-n2ncc3c(N4CCN(C)CC4)ncnc32)cc1 [CBK265848]	47.5633
CC(=O)N(C)c1nc(-c2ccccc2C)ccc1C(=O)Nc1cc(C)nn1C [CBK106357]	121.726
CC(Oc1ccc(Cl)cc1Cl)C(=O)Nc1ccc(N2CCN(C)CC2)c(Cl)c1 (centres unmarked) [CBK268563]	89.9845
CC(C)C(=O)NC1CCN(C(=O)CCn2ccc3ccncc32)CC1 [CBK284730]	59.9557
O=C(NC(=S)Nc1ccc2[nH]c(=O)[nH]c2c1)c1ccc(OCc2ccccc2)cc1 [CBK268908]	100.031
O=[N+]([O-])c1ccc(N2CCN(CCO)CC2)cc1NCc1ccc(Cl)cc1 [CBK042201]	90.2578
CN(C)C(=O)Cc1ccc(Cn2ccnc(N3CCC(Sc4ccccc4)CC3)c2=O)cc1 [CBK153652]	88.712
O=C1NC(Nc2ccc(SCCN3CCOCC3)cc2)c2ccccc21 (centres unmarked) [CBK010123]	112.142
CN1CCN(C(=O)C2CCCN(S(=O)(=O)c3ccc(Br)cc3)C2)CC1 (centres unmarked) [CBK269006]	94.7419
CCNC(=O)N1CC2(CCN(CCCC#N)CC2)c2ccccc21 [CBK136970]	107.521
Fc1ccc(CCN2CCC(Oc3cncc(OCC4COc5ccccc5O4)n3)C2)cc1 (centres unmarked) [CBK084383]	80.6663
CN1CCCc2c1nc1ccc(Br)cc1c2N [CBK009692G]	46.512
COc1cc(CNn2c(C)nnc2S)cc(Br)c1OCC(=O)NC(C)(C)C [CBK266575]	98.4559
O=C1Cc2c(ccc3ccccc23)C2(CCN(CCCC(F)(F)F)CC2)N1 [CBK039912]	112.687
COC(=O)C(N)c1c[nH]c2ccccc12 (centres unmarked) [CBK089840]	46.4377
CC(C)(C)c1ccc(S(=O)(=O)N2CCCCC2CCO)cc1[N+](=O)[O-] (centres unmarked) [CBK200067]	75.7424
CO[C@H]1CC[C@H](C(=O)NC(c2ccccc2)c2nccn2C)CC1 (some centres unmarked) [CBK283852]	90.603
Cc1nn(CC(C)C)c(C)c1CCC(=O)N(C)Cc1c(C)nn(-c2ccccc2)c1C [CBK295301]	88.4192
Cc1nnc(Sc2cc(C(F)(F)F)ccn2)s1 [CBK115215]	88.4589
CCOC(=O)C1(C2CCCCC2)CCN(C(=O)CN2C(=O)CSC2=O)CC1 [CBK160993]	74.9836
O=C(Nc1ccc(Cl)cc1)N1CCN(c2ccccc2)CC1 [CBK155188]	103.088
COc1ccc(C(C)C)cc1-c1cncc(N[C@@H](C)c2ccccc2)n1 [CBK065504]	84.9252

SMILES	% of control remaining
Cc1noc(C)c1S(=O)(=O)Nc1cc(C(F)(F)F)ccc1N1CCOCC1 [CBK062545]	102.229
Cc1nc(N2CCCC2)ncc1-c1cc(=O)[nH]c(N2CCCCC2)n1 [CBK288226]	91.6341
N#Cc1ccc(CN2CCCN(S(=O)(=O)c3ccc(C(=O)c4ccccc4)cc3)CC2)cc1 [CBK062962]	78.275
Cc1ccccc1-c1nc2ccc(NC(=O)CCC(=O)O)cc2o1 [CBK269904]	95.9059
COc1ccccc1-c1ncc(OCCN2CCOCC2)nc1N [CBK145072]	110.182
O=C(O)c1cccc2c1C(=O)N(Cc1ccccc1F)C2 [CBK291172]	118.674
Cc1noc(C)c1CC(=O)N(C)CCN1CCCCC1 [CBK281855]	112.651
CC(C)(C)C(=O)NCCn1nc(-c2cccs2)oc1=O [CBK282344]	57.3632
CCNC(=O)O[C@@H]1CO[C@H]2[C@@H]1OC[C@@H]2NC(=O)c1ccc(C)cc1 [CBK289472]	88.1819
Cc1cn([C@H]2C[C@@H](O)[C@@H](CI)O2)c(=O)[nH]c1=O [CBK201197]	128.858
COCC(C)NCc1cc(-c2ccc(Cl)cc2)c[nH]c1=O (centres unmarked) [CBK284726]	84.2335
CN(C(=O)CN1CSCC1=O)c1nc2c(s1)CC(c1ccccc1)CC2 (centres unmarked) [CBK305526]	57.8739
CC(=O)c1cccc(-c2cnc(Nc3ccc(N4CCOCC4)cc3)c3nccn23)c1 [CBK091217]	104.896
Cc1ccc(OCC(=O)Nc2ccc3c(c2)nc2n3CCOC2)cc1 [CBK288005]	87.5986
COc1cccc(-c2ccc(NS(=O)(=O)c3ccc4c(c3)CCC(=O)N4)cc2)c1 [CBK286373]	100.719
O=C(Nc1ccc(Br)cc1C(=O)O)c1cccs1 [CBK066822]	131.618
N#CC(CCCN1CCN(c2ccccc2)CC1)(c1ccccc1)c1ccccc1 [CBK002243C]	46.2994
O=C(O)c1cc(C(=O)O)n(Cc2ccc(Cl)cc2Cl)n1 [CBK268283]	78.5623
CN1CCN(S(=O)(=O)c2ccc3oc(=O)ccc3c2)CC1 [CBK062431]	55.2677
O=C(CC(CN1CCN(c2cccc(Cl)c2)CC1)C(=O)O)NCc1ccccc1 (centres unmarked) [CBK286787]	93.1754
Cn1c(N)c(C(=O)NCC2CCCO2)c2nc3ccccc3nc21 (centres unmarked) [CBK269342]	108.456
c1cncc(-c2nnc([C@H]3CCN(C4CCOCC4)C3)o2)c1 [CBK289398]	125.133
COc1ccc(C(C)(C)C)cc1NC(=O)c1ccncc1 [CBK288248]	113.397
CCN(CC)C(=O)Cn1ncc2c3sc(C)cc3n(C)c2c1=O [CBK284156]	88.2676
COc1cccc(CNC(=O)C2CCCN(c3nc4c(-c5ccccc5)csc4c(=O)[nH]3)C2)c1 (centres unmarked) [CBK215463]	124.795
Cn1ccc(C2CCCCCN2S(=O)(=O)c2ccc(F)cc2)n1 (centres unmarked) [CBK284671]	88.3985
CC(C)C(NS(=O)(=O)c1ccc2ccccc2c1)C(=O)O (centres unmarked) [CBK286919]	98.6589

SMILES	% of control remaining
CC(Sc1nnc2[nH]c3ccccc3n12)C(=O)O (centres unmarked) [CBK265822]	125.784
Cc1csc(N2CCN(CC(O)COCc3ccco3)CC2)n1 (centres unmarked) [CBK306151]	106.696
Cc1ccc(S(=O)(=O)Nc2nnc(SCC(=O)Nc3ccc4c(c3)OCO4)s2)cc1 [CBK026675]	86.5904
CC(=O)ON=C1c2cc(S(=O)(=O)N(C)C)ccc2-c2ccc(S(=O)(=O)N(C)C)cc21 [CBK262807]	85.046
CN(C)C(=O)CCc1nc(-c2ccccn2)no1 [CBK297735]	95.1957
Cn1ccnc1C1(O)CC2CCC(C1)N2C(=O)Nc1ccc(F)cc1 (centres unmarked) [CBK284051]	92.7286
CNC(=O)C1(Cc2ccccc2-c2cccs2)CCN(C(=O)Cc2cccc(C)c2)CC1 [CBK285686]	106.181
Cc1cc2ncn(CC(=O)N3CCc4ccccc43)c2cc1C [CBK200270]	85.1379
Cc1nc2ccc(C(=O)c3ccccc3O)cn2c(=O)c1CCC(=O)O [CBK295618]	99.1667
CC1CCN(S(=O)(=O)c2cccc(C(=O)NNC(=O)c3cccc([N+](=O)[O-])c3)c2)CC1 [CBK266774]	91.1813
COc1ccccc1-c1nccnc1OCc1ccccc1 [CBK106817]	87.7311
Cc1nc[nH]c1CN(CCCn1ccnc1)Cc1ccccc1Cl [CBK282473]	124.888
O=C1Cc2ccccc2C2(CCN(C(=O)Nc3c(F)cccc3F)CC2)N1 [CBK047296]	104.69
Cc1nc(CC(=O)NC2CCCN(c3ccn(C)n3)C2=O)c(C)s1 (centres unmarked) [CBK304422]	95.1761
COc1ccc(OC)c(-n2c(C)cn3c4c(=O)[nH]c(=O)n(C)c4nc23)c1 [CBK141314]	28.0945
CNC(=O)NC(=O)C1CCN(CCc2ccccc2)CC1 [CBK034956]	73.2215
Cc1ccccc1OCC(O)CNC(=O)c1ccccc1C(=O)O (centres unmarked) [CBK264824]	107.712
O=C(Cc1ccccn1)N1CCc2ccccc2C1 [CBK200334]	102.708
Cc1nnc(SCc2cc(=O)[nH]c(N3CCN(c4ccccc4F)CC3)n2)s1 [CBK270017]	77.7463
O=C(Nc1cccc2ccccc12)C1CCCN1S(=O)(=O)c1ccc(Cl)cc1 (centres unmarked) [CBK138930]	98.3621
CN1CCN(c2ccc(NC(=S)NC(=O)c3cc(Br)ccc3Cl)cc2)CC1 [CBK266254C]	130.554
Nc1ccc2ccc(-c3ccccc3)nc2n1 [CBK061865]	90.1636
CC(=O)Nc1ccc(Oc2cc(C)nc(C3CCCNC3)c2)cc1 (centres unmarked) [CBK283443]	87.1694
CC1(C)CC(N(Cc2c[nH]cn2)Cc2ccccc2F)CC(C)(C)N1 [CBK282579]	87.2306
COc1ccc2nc(-c3ccc(F)c(NC(=O)c4ccccc4)c3)cn2n1 [CBK287827]	74.0479
Cc1ccc(S(=O)(=O)Nc2ccc(N3C[C@@H](C)N[C@@H](C)C3)c3ccccc23)cc1 [CBK001486C]	60.7762
